Measurements as given in paper PMC4336329 (PLoS ONE, 2015).
Among all 310,000 compounds or so, about 2,200 (0.71%) showed an effect of 50% or more. The effect is printed as a negative number. The list shows a part of the results.

Biological target: human ether-à-go-go-related gene (hERG) potassium channel (human, UniProt Q12809)
Assay: primary screen, population patch clamp on CHO cells stably expressing hERG

human ether-à-go-go-related gene (hERG) potassium channel, sequence (Q12809 whole entry, looked up): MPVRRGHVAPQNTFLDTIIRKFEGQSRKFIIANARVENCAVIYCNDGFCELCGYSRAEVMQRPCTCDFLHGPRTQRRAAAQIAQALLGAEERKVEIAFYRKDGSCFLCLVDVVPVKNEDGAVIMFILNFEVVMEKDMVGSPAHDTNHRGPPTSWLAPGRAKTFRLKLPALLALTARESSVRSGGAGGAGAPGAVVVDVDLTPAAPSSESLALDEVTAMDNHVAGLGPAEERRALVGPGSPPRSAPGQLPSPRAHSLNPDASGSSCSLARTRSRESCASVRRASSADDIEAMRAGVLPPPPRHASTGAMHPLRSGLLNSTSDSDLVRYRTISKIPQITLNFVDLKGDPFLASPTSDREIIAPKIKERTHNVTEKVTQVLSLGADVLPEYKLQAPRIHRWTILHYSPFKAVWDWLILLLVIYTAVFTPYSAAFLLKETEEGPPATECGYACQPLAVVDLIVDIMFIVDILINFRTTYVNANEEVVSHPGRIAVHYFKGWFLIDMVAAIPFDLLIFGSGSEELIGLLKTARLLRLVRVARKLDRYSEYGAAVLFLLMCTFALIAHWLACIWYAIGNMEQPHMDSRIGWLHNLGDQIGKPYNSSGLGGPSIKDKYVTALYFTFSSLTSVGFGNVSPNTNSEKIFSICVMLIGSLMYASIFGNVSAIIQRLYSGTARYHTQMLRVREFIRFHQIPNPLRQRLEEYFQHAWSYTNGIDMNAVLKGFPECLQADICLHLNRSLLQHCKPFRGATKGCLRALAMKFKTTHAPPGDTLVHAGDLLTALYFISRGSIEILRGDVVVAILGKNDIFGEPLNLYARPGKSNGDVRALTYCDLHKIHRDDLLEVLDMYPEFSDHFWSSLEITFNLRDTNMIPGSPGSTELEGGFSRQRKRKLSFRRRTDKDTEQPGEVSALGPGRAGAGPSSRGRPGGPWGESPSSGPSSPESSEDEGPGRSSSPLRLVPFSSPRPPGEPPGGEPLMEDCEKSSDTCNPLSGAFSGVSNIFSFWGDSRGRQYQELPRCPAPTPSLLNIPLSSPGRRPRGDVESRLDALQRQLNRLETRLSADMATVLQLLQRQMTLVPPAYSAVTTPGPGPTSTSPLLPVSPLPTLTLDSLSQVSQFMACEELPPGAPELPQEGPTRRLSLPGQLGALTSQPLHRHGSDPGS

Row | SMILES | hERG current change (%, negative = inhibition) at 1uM
1 | Cc1cc(C)n(C(C)Sc2ccccc2)n1 (stereo not shown) | 7.9%
2 | COc1cccc(C(=O)Nc2ccc3[nH]c(=O)[nH]c3c2)c1OC | 15.6%
3 | CC(=O)c1ccc(N(C(=O)Cc2c[nH]c3ccccc23)C(C(=O)NC2CCCCC2)c2cccs2)cc1 (stereo not shown) | 10.9%
4 | CCCc1nc2c(c(=O)c3ccccc3n2C)c(=O)n1-c1ccc(F)cc1 | 14.1%
5 | COC(=O)c1ccc(CSc2nnnn2Cc2ccccc2)cc1 | -5.09%
6 | CCOc1ccc(-c2nnn(CC(=O)c3ccc4c(c3)OCCO4)n2)cc1 | 3.94%
7 | O=C(CN(c1ccc(F)cc1)S(=O)(=O)c1ccc2c(c1)OCCO2)Nc1ccc2c(c1)OCO2 | 9.51%
8 | CC(C)C[C@@H](CN=[N+]=[N-])N1CCN(Cc2ccccc2)CCC1=O | 4%
9 | CCOc1ccccc1NC(=O)Cn1nc(-c2ccco2)ccc1=O | 7.78%
10 | O=C(CCN1C(=O)COc2ccccc21)N1CCN(c2ccccc2)CC1 | -3.02%
11 | CCOc1ccc(NC(=O)CSc2nnc(CNC(=O)c3cccs3)o2)cc1 | 12%
12 | O=C(COC(=O)c1ccc(O)cc1O)NC1CCCCCC1 | 7.68%
13 | O=C(NCc1ccccc1)c1ccc(CSc2ccccc2)o1 | -1.22%
14 | Cc1ccc(-c2nc3ccccc3c(=O)n2O)cc1 | 20.5%
15 | O=C(NCc1cc(F)ccc1F)C1CCC(=O)N(C2CCCCCC2)C1 (stereo not shown) | 18.9%
16 | Cc1nn(C(C)C(=O)NCCc2cccs2)c(=O)c2nn(-c3ccccc3)c(C)c12 (stereo not shown) | -3.17%
17 | COc1ccc(S(=O)(=O)N/N=C(/C)c2ccncc2)cc1 | -0.381%
18 | Cc1ccc2oc(=O)c3cc(C(=O)N4CCN(C)CC4)sc3c2c1 | 12.9%
19 | COc1ccc(C(N)=O)cc1N | 21.1%
20 | O=C(COC(=O)Cc1ccccc1[N+](=O)[O-])NCc1ccc(Cl)cc1 | 5.27%

Row | SMILES | hERG current change (%, negative = inhibition) at 1uM
21 | CC1=C(C(=O)N2CCCCC2)C(c2cccs2)NC(=O)N1 (stereo not shown) | 6.64%
22 | O=C(Nc1ccsc1C(=O)NC1CCCCC1)c1ccc(F)cc1 | 1.17%
23 | O=C(O)c1ccc(-n2c(-c3ccccc3)n[nH]c2=S)cc1 | 15.2%
24 | CC(=O)c1ccc(N2CCN(C(=O)c3cccs3)C(C)C2)c(F)c1 (stereo not shown) | 1.21%
25 | Cc1cc(S(=O)(=O)N2CCCC(N(C)CCc3ccccn3)C2)c(C)s1 (stereo not shown) | -13.9%
26 | CCOc1ccc(NC(=O)CSc2nnc(-c3ccccc3Cl)n2Cc2ccco2)cc1 | 1.27%
27 | Cc1oc(-c2ccc(Cl)cc2)nc1CN1CCCC(C(=O)NCc2ccco2)C1 (stereo not shown) | -56.4%
28 | CCN(CC)C(=O)CSc1nc2c(sc(=S)n2-c2ccccc2)c(=O)n1-c1ccc(OC)cc1OC | 10.7%
29 | CN1C(=O)C2ON(c3ccccc3)C(c3cccs3)C2C1=O (stereo not shown) | -2.68%
30 | Brc1ccc(CNCC2CCCO2)cc1 (stereo not shown) | 9.87%
31 | CCc1cccc2c(C(=O)CN3C(=O)N(C)C4(CCCCC4)C3=O)c[nH]c12 | 7.45%
32 | Cc1ccccc1Cn1cc(/C=N/n2cnnc2)c2ccccc21 | 13.8%
33 | O=C(CSc1nnc(Cc2ccc3c(c2)OCO3)n1C1CCCCC1)NC1CCCC1 | 13.2%
34 | O=C(NCC1CCCO1)C1CCCN(S(=O)(=O)c2ccc(Cl)cc2)C1 (stereo not shown) | 5.63%
35 | COc1cc2c(cc1OC)CN(Cc1cc(=O)n3cc(C)ccc3n1)CC2 | -7.37%
36 | O=C(Nc1ccc(Br)cc1F)c1cccnc1 | -1.23%
37 | COc1ccc(CNC(=O)c2ccc(N3CCOCC3)c([N+](=O)[O-])c2)cc1 | -7.32%
38 | CC1Cc2ccccc2N1C(=O)CN1C(=O)CN(C)C(=O)c2ccccc21 (stereo not shown) | 11.1%
39 | CCn1c(SCC(=O)NNC(=O)c2ccc(C)cc2)nnc1C1CC1 | 18.7%
40 | COc1ccccc1N1CCN(S(=O)(=O)CCNC(=O)Cc2ccc(F)cc2)CC1 | 6.71%

Row | SMILES | hERG current change (%, negative = inhibition) at 1uM
41 | CCN(CC)C(=O)C(Oc1ccc(C)nc1[N+](=O)[O-])c1ccccc1 (stereo not shown) | 12.9%
42 | COc1ccccc1-n1cnc2cc(NC(=O)c3ccco3)ccc21 | 3.6%
43 | O=C(CNC(=O)Cc1cccc2ccccc12)NCc1ccccc1F | 9.57%
44 | CC(NC(=O)Cc1ccccc1)C(c1ccccc1)N1CCOCC1 (stereo not shown) | 20.3%
45 | COCCNC(=O)COc1ccccc1C | 8.14%
46 | Cc1ccc(/C=C2\C(=O)NC(=O)N(CCc3ccc(F)cc3)C2=O)s1 | 11.9%
47 | CCNC(=O)NC(=O)C(C)Sc1ccc2c(c1)OCCO2 (stereo not shown) | 7.84%
48 | COCCn1c(C)cc(C(=O)COc2ncnc3ccc(Br)cc23)c1C | 4.21%
49 | CN(C)CCCN(C(=O)/C=C/c1cccs1)c1nc2ccc(F)cc2s1.Cl | 4.03%
50 | CCC(C)NC(=O)c1cn(-c2cccc(OC)c2)c(=O)c2ccccc12 (stereo not shown) | 9.02%
51 | Cc1c(N)ccc(-n2nc3ccccc3n2)c1C | 7.32%
52 | CC1(C)CC(=O)C(N=Nc2ccc(F)cc2)=C(O)C1 | 6.08%
53 | c1ccc2c(c1)nnn1c3ccccc3nc21 | 9.5%
54 | O=C(NCc1ccc(Cl)cc1)c1ccc(CNc2c(N3CCCC3)c(=O)c2=O)cc1 | 9.61%
55 | Cc1cccc(C)c1NC(=O)CN(C)C(=O)c1ccc(N2C(=O)CCC2=O)cc1 | 5.56%
56 | Cc1onc(-c2ccccc2)c1C(=O)N1CCC(CO)(Cc2ccccc2)CC1 | 16.1%
57 | CCC1CCCCN1CCCNC(=O)c1csc2c1CCCCC2 (stereo not shown) | -24.2%
58 | Cc1ccc(S(=O)(=O)N2CCN(CC(=O)Nc3ccnn3C3CCCC3)CC2)cc1 | 0.875%
